Experimental findings from article PMC4336329 (PLoS ONE, 2015) are described below.

Among all 310,000 compounds or so, about 14,000 (4.5%) showed an effect of 50% or more. Effects have a minus sign here. This is one part of the list.
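Further: peak tail current of the secondary pulse compared with the same well before compound.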

In the assay the target is human ether-à-go-go-related gene (hERG) potassium channel (human, UniProt Q12809). The assay is described as follows: primary screen, population patch clamp on CHO cells stably expressing hERG.
human ether-à-go-go-related gene (hERG) potassium channel, sequence (Q12809 whole entry, looked up): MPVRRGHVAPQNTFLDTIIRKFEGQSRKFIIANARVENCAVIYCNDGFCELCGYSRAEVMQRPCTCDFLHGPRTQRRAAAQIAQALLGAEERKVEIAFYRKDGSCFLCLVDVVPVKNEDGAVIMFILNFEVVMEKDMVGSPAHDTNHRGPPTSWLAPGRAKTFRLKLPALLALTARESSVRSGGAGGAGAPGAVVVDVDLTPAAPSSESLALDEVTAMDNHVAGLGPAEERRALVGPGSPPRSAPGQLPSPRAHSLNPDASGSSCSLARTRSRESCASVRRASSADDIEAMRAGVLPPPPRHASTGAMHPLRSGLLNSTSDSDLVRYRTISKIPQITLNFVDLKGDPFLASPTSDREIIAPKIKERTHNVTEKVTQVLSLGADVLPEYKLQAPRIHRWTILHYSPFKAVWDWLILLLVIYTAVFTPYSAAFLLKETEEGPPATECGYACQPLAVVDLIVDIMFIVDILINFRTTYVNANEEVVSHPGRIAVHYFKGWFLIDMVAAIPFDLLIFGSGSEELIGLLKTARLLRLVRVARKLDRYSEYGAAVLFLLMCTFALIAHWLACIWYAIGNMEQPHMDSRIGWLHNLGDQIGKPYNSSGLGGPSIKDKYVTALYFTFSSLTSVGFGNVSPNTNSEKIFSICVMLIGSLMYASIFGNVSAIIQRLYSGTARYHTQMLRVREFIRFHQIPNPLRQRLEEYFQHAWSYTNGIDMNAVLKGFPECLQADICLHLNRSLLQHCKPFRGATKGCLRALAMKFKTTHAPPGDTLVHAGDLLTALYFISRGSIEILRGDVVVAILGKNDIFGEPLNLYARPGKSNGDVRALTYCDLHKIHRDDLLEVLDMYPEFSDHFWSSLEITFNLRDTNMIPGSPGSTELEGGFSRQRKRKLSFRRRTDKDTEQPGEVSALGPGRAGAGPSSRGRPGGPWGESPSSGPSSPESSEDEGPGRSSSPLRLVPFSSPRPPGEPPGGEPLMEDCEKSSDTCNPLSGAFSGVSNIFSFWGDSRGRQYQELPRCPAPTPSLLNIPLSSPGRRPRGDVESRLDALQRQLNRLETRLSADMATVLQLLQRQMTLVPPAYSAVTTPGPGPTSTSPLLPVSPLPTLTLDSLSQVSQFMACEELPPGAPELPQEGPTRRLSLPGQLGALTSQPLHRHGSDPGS
For the compound `O=C(NC1CCCCCCC1)C1CCCN(S(=O)(=O)c2cnc[nH]2)C1` (centres unmarked), the “hERG current change (%, negative = inhibition) at 10uM” value is reported as 12.8%.

For the compound `CC1CCCN(CCCNS(=O)(=O)c2cc(Br)cc3c2N(C(=O)C2CC2)CC3)C1` (centres unmarked), the “hERG current change (%, negative = inhibition) at 10uM” value is recorded as -9.8%.

For the compound `Cc1ccn2c(/C=N/OCc3ccc(F)cc3)c(-c3ccc(Cl)cc3)nc2c1`, the “hERG current change (%, negative = inhibition) at 10uM” value is 7.2%.

On to `CCC(C(=O)Nc1ccc(C(=O)Nc2ccccc2C(=O)O)cc1)c1ccccc1` (centres unmarked), for which the “hERG current change (%, negative = inhibition) at 10uM” value is on record as 10.6%.

Regarding `O=C(COc1ccccc1Cl)Nn1cnnc1`, the “hERG current change (%, negative = inhibition) at 10uM” value is on record as 13.3%.

In the case of `COc1cc2c(cc1OC)C(c1cccs1)N(C(=O)c1ccc(S(=O)(=O)N(C)C)cc1)CC2` (centres unmarked), the “hERG current change (%, negative = inhibition) at 10uM” value was -72.6%.

On to `COc1ccccc1NC(=O)c1cc2c(CO)cnc(C)c2oc1=Nc1cc(OC)c(OC)c(OC)c1`, for which the “hERG current change (%, negative = inhibition) at 10uM” value turned out to be 24.9%.

For `COC(=O)C1=C(C(=O)OC)[C@@H]2Nc3ccccc3[C@@]23C[C@@H](C(=O)OC)N(C(=O)c2cc(C)oc2C)C3=N1`, the “hERG current change (%, negative = inhibition) at 10uM” value turned out to be 12.8%.

In the case of `O=C(OCCOc1ccc(Br)cc1)c1cnccn1`, the “hERG current change (%, negative = inhibition) at 10uM” value is -2.06%.

In the case of `COCCC(=O)N1CCCC(C(=O)c2ccc(Oc3ccccc3)cc2)C1` (centres unmarked), the “hERG current change (%, negative = inhibition) at 10uM” value was -79.3%.

Take `Cc1ccc(C(=O)NCCNS(C)(=O)=O)cc1`: the “hERG current change (%, negative = inhibition) at 10uM” value is on record as 10%.

Turning to `Cc1ccc(-n2nc3c(=O)n(C(C)C(=O)NCc4ccccc4Cl)nc(C)c3c2C)cc1` (centres unmarked), the “hERG current change (%, negative = inhibition) at 10uM” value was -35.5%.

Turning to `O=C(Cc1cccs1)NCc1cn2ccccc2n1`, the “hERG current change (%, negative = inhibition) at 10uM” value amounted to 2.26%.

For the compound `Cc1ccc(C)c(NS(=O)(=O)c2ccc3oc(=O)ccc3c2)c1`, the “hERG current change (%, negative = inhibition) at 10uM” value is -2.97%.

Take `Cc1cc(=O)oc2cc(OCC(=O)N3CCN(c4ccc(F)cc4)CC3)c(Cl)cc12`: the “hERG current change (%, negative = inhibition) at 10uM” value is 5.01%.

As for `O=C(COC(=O)c1ccccn1)Nc1cc(Cl)ccc1Cl`, the “hERG current change (%, negative = inhibition) at 10uM” value was 9.34%.

As to `CCn1cnc2c1c(=O)n(Cc1cccc([N+](=O)[O-])c1)c(=O)n2Cc1ccccc1`, the “hERG current change (%, negative = inhibition) at 10uM” value turned out to be 3.59%.

With `Clc1ccccc1COc1ccc(/C=N/n2cnnc2)cc1`, the “hERG current change (%, negative = inhibition) at 10uM” value was -0.271%.

On to `O=C(Nc1nc2ccccc2n1CCN1CCCCC1)c1ccco1`, for which the “hERG current change (%, negative = inhibition) at 10uM” value is given as -54.8%.

On to `Cc1ccc(C(=O)CCC(=O)OCC(=O)N(C)c2c(N)n(Cc3ccccc3)c(=O)[nH]c2=O)cc1`, for which the “hERG current change (%, negative = inhibition) at 10uM” value amounted to 5.56%.

Turning to `COc1ccc(C2(C(=O)NCCCN(C)C)CCOCC2)cc1`, the “hERG current change (%, negative = inhibition) at 10uM” value stood at 7.45%.

For `CCCC(=O)Nc1nnc(Sc2ccc(N(C)C)cc2)s1`, the “hERG current change (%, negative = inhibition) at 10uM” value worked out at 3.19%.

Consider `Cc1ccc2c(c1)nnn2C1CCN(C(=O)C2CCCCC2)CC1`, for which the “hERG current change (%, negative = inhibition) at 10uM” value is reported as -31.3%.
